Measured values reported in the supplement of paper PMC3724861.
This is one part of the list.

Each sequence was assayed on T1, Caupolican (Caup) homeodomain DNA-binding domain (assay: PBM E-score (8-mer, recovered from the published 9-mer minima) (E-score (dimensionless, -0.5 to 0.5)); Drosophila protein; higher = stronger relative binding preference, active = 0.31 or more).
T1 sequence: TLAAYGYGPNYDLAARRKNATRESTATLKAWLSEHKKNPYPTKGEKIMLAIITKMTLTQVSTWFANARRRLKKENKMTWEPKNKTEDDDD
In short: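 An enrichment score, with higher meaning stronger, expresses relative binding preference for each short DNA word. The protein used was Caup's homeodomain DNA-binding domain (residues 214-303), produced by in vitro transcription and translation and tested at 100 nM on custom-designed protein binding microarrays. The 8-mer values were recovered from published 9-mer scores, each equal to the lower of its two constituent 8-mer scores.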

Sequence | PBM E-score
AAAAATTG | inactive: -0.0297
AAAGGACG | inactive: -0.0381
CTGGAGAC | inactive: -0.143
TGACTGCA | inactive: 0.0634
GGGGCGAC | inactive: -0.158
TCCTGCAA | inactive: -0.0379
CGTACGCA | inactive: -0.0196
TGGCATAA | ≥ 0.0902
CGACATAG | inactive: 0.232
CGTTCTTA | inactive: 0.0267
CAATGCCA | inactive: -0.011
ACATCGCC | inactive: 0.136
AACCATTC | inactive: -0.0222
CAAATAAC | ≥ 0.276
AATCAACT | inactive: 0.132
TAGAAGAA | inactive: 0.02
CCGAAGTA | inactive: 0.0559
AGTTTTAT | inactive: 0.0486
CGCCATAC | inactive: 0.00396
CAATACAC | inactive: 0.271
ACCCGAGA | inactive: -0.114

Sequence | PBM E-score
CGGTGAGA | inactive: -0.0868
AGACCCGG | inactive: -0.15
ACTGTGCT | inactive: 0.0218
CCTACAAA | inactive: -0.0102
GCACCACC | inactive: -0.107
ATGTCCCG | inactive: 0.134
GGGCCTAC | inactive: -0.155
CACTGGCG | inactive: -0.0957
CGTCAGAG | inactive: -0.0167
GCCGTAGC | inactive: -0.178
AGGCGATA | inactive: -0.0366
AAACGCTA | inactive: 0.00553
GACGACAA | inactive: 0.269
GTGTTACA | active: 0.381
CGGGCTCA | inactive: -0.153
AAGCATCC | inactive: -0.0283
TCACGGAA | inactive: 0.0468
AGCCGCCA | inactive: -0.213
CTATTAAG | inactive: -0.0767
CTGACAGA | inactive: 0.0877
CGGAGACC | inactive: -0.21

Sequence | PBM E-score
CAATGCAA | inactive: 0.0824
GTACCTTA | inactive: 0.0736
GCCTAACA | inactive: 0.0242
ATTGGAAA | inactive: 0.0219
AGTAAAAT | inactive: 0.0149
TATCAATA | inactive: 0.161
AACCACAC | inactive: 0.0803
AACGCTGC | inactive: -0.0702
ATGATACC | inactive: 0.116
GTGCTCCA | inactive: -0.0875
ACAAAAGC | inactive: 0.109
CAAATGTG | inactive: 0.178
AAGTGAAC | inactive: 0.0866
AGGGAGAT | inactive: -0.151
AAGTGTCA | inactive: 0.0964
GCACACAA | inactive: 0.0665
GCCACTAA | inactive: -0.0954
ACTCGGCA | inactive: -0.0666
GCTCGTAA | inactive: 0.0735
